# Hit rate of the full screen: of about 310,000 compounds, about 14,000 (4.5%) showed an effect of 50% or more. Effects have a minus sign here. The list shows a part of the results.
# Target: human ether-à-go-go-related gene (hERG) potassium channel (human, UniProt Q12809)
# Experiment: primary screen, population patch clamp on CHO cells stably expressing hERG
# 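Further: peak tail current of the secondary pulse compared with the same well before compound.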
# Sequence of human ether-à-go-go-related gene (hERG) potassium channel (Q12809 whole entry, looked up): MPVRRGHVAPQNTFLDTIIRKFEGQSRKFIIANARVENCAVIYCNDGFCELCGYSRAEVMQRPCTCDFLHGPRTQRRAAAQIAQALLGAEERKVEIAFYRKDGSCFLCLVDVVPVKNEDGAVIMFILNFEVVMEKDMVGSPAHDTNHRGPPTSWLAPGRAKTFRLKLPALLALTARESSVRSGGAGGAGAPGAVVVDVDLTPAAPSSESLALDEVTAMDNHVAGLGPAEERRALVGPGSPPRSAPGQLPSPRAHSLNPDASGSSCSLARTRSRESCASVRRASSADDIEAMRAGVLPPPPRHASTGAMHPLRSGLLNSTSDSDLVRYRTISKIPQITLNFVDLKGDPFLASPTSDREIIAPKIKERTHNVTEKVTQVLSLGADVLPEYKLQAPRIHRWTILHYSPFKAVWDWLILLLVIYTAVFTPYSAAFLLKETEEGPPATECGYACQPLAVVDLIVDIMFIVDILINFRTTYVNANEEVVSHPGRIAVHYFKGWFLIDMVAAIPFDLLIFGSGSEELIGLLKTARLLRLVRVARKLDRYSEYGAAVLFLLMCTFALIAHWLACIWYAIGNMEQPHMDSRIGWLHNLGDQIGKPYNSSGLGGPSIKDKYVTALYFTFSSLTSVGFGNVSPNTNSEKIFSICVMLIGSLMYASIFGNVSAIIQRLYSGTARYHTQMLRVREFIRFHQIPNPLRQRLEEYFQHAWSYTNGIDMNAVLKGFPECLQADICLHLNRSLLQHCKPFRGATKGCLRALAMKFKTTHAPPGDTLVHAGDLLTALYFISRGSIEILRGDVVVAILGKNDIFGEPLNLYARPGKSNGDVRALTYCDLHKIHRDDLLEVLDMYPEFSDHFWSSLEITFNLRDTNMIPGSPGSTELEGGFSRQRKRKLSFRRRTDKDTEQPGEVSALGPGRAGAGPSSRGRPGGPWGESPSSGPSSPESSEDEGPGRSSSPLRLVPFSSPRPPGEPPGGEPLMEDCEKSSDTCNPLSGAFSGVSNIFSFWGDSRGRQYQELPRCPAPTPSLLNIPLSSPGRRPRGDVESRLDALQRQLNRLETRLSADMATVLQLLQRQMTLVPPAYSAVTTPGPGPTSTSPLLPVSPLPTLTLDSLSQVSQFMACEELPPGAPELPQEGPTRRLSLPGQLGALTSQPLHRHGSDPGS
row,SMILES,"hERG current change (%, negative = inhibition) at 10uM [%]"
1,CCCCCCP(=O)(O)c1ccccc1,2
2,O=C(NC1CCCCC1)C1CCC(CNS(=O)(=O)c2cccc3nsnc23)CC1 (centres unmarked),10
3,CCOC(=O)c1ccc(N=Cc2nc(-c3ccccc3)oc2OC(C)=O)cc1,11.2
4,COc1cc2c(cc1NC(=O)CN1CCN(S(=O)(=O)c3ccc(C)cc3)CC1)oc1ccccc12,3.91
5,COc1ccc(N(CC(=O)Nc2ccc3c(c2)OCO3)S(=O)(=O)c2c(C)nn(C)c2C)cc1,11.6
6,CCCCCOC(=O)Cn1c(=O)c2c(nc(N3CCOCC3)n2C)n(C)c1=O,-45.3
7,Cc1c(C(=O)Nc2ccc(S(=O)(=O)Nc3ncccn3)cc2)oc2ccccc12,7.14
8,Cc1ccc(S(=O)(=O)N2CCOCC2)cc1C(=O)Nc1ccccc1N1CCCC1,-24.1
9,CC(C(=O)Nc1ccc(S(=O)(=O)N2CCCC2)cc1)N1CCN(C(=O)c2ccco2)CC1 (centres unmarked),-7
10,Cc1ccc(-c2nn(C)c(=O)c3ccccc23)cc1S(=O)(=O)N1CCOCC1,-36.8
11,O=S1(=O)NC(=NCCOCCO)c2ccccc21,9.3
12,COc1ccc(OCC(O)COc2ccc(C(=O)O)cc2)cc1 (centres unmarked),12.8
13,COc1ccc(Cc2nnc(SCC(=O)N3CCN(c4ccccc4)CC3)o2)cc1,1.95
14,Cc1noc(C)c1CSc1nnc(-c2ccccc2F)n1CCc1ccccc1,-45.1
15,COC(=O)C1CCN(C(=O)NC2CCCCC2)CC1,8.96
16,COc1ccc(C2C(C(=O)NCc3cccnc3)c3cc(OC)c(OC)cc3C(=O)N2C)cc1 (centres unmarked),14.9
17,CCCCNC(=O)c1ccc(CNS(=O)(=O)c2ccc(Br)cc2)cc1,2
18,CC1Cn2c(nnc2-c2ccc(F)cc2)S1 (centres unmarked),-13.8
19,COc1cccc(NC(=O)c2ccc(NC(C)=O)cc2)c1,9.01

row,SMILES,"hERG current change (%, negative = inhibition) at 10uM [%]"
1,Cc1c(/C=N/NC(N)=O)c2ccccn2c1C(=O)c1ccncc1.Cl,-54.9
2,CCCCNC(=O)c1cn(CC)c2ccc(S(=O)(=O)N3CCCCCC3)cc2c1=O,7.01
3,CCOCCCNS(=O)(=O)c1ccc(NC(=O)N2c3ccccc3Sc3ccccc32)cc1,3.13
4,COc1ccc(C(C(=O)NC2CCCC2)N(C(=O)c2ccco2)c2ccccc2OC)cc1 (centres unmarked),-12.4
5,Cc1ccc(/C=C2\CCOC2=O)cc1,1.95
6,COCCCNC(=O)c1c(NC(=O)C2COc3ccccc3O2)sc2c1CCCC2 (centres unmarked),15.2
7,CCSc1nc2ccccc2n1CC(N)=O,8.19
8,O=C(c1cnn2c(C(F)(F)F)cc(-c3ccccc3)nc12)N1CCCc2ccccc21,8.7
9,CCOc1ccc(NC(=O)Cn2nnc(C(=O)NCc3cccs3)c2N)cc1,13.8
10,O=C(CN1C(=O)NC2(CCCCCC2)C1=O)N1CCN(c2ccc(F)cc2)CC1,-44.7
11,Cc1cc(NC(=O)C2CCCN(S(=O)(=O)c3c(C)noc3C)C2)n[nH]1 (centres unmarked),-16.1
12,CCN=C1S/C(=C/c2ccc(-c3ccc(Cl)cc3C(=O)O)o2)C(=O)N1CC,25.3
13,CN(C(=O)c1cc(-n2cnnc2)ccc1Cl)c1ccccc1,8.56
14,CCN(CC)CCCNC(=O)CC1Oc2ccc(C)cc2NC1=O (centres unmarked),0.515
15,CCOc1ccc(CN2CCN(Cc3ccc(C)o3)CC2CCO)cc1 (centres unmarked),-104
16,CC(C)(C)c1cc[n+](CC(=O)Nc2cc(C(F)(F)F)ccc2N2CCOCC2)cc1.[Cl-],0.427
17,COCCN(CCOC)S(=O)(=O)c1ccc(C(=O)Nc2sc3c(c2C(N)=O)CCCCC3)cc1,18.7
18,CC(C)(C)C(=O)Nc1nnc(-c2ccncc2)o1,18.7
19,CCN(CC(=O)NCc1cccs1)C(=O)/C=C/c1ccc(Cl)c(Cl)c1,-41.1

row,SMILES,"hERG current change (%, negative = inhibition) at 10uM [%]"
1,COC(=O)c1[nH]c2c(c1C(=O)OC)CCc1ccccc1-2,4.35
2,Cc1ccc(NC(=O)CCc2ccc(C)o2)c(Br)c1,5.35
3,CCC(C)(C)NC(=O)c1ccc2c(c1)N(CC(=O)N1CCCC1)C(=O)C(C)(C)O2,11.1
4,O=C(NCc1cc([N+](=O)[O-])ccc1O)c1cccnc1Sc1ccccc1,-21.6
5,COc1ccccc1N1CCN(/N=C/c2ccc(C(=O)O)cc2)CC1,16.3
6,CCCSc1nnc2n(N)c(=O)c3ccccc3n12,-8.29
7,COc1ccc(C(=O)c2cc([N+](=O)[O-])ccc2N2CCOCC2)cc1,-23.5
8,N#Cc1ccc(NC(=O)Nc2ccc(Oc3ccc(NC(=O)Nc4ccc(C#N)cc4)cc3)cc2)cc1,11.4
9,Cc1cccc(OCC(=O)N/N=C/c2cccn2C)c1,-2.24
10,O=C(c1ccccc1F)N(Cc1cccnc1)Cc1cc2cc3c(cc2[nH]c1=O)OCCO3,4.98
11,Cc1c(C2Nc3ccccc3NC3=C2C(=O)CC(C)(C)C3)cnn1C (centres unmarked),15.6
12,C=CC(=O)Oc1ccc(N2Cc3ccccc3C2=O)cc1,19.1
13,Cc1c(N=NC2=C(O)CC(C)(C)CC2=O)c(=O)n(-c2ccccc2)n1C,-3.39
14,CCn1ccnc1CN1CCCC(CO)(Cc2cccc(OC)c2)C1 (centres unmarked),-17.7
15,COc1ccc(NC2=C(C(C)=O)C(c3ccc(OC)c(OC)c3)C(C(C)=O)C(C)(O)C2)cc1 (centres unmarked),4.14
16,CCCCN(C(=S)Nc1ccccc1)C1CCS(=O)(=O)C1 (centres unmarked),-0.981
17,CCCCCC(=O)N1CCN(c2ccc(C(C)=O)cc2F)CC1,-60.9
18,CC(C)Oc1ccc(C(CC(=O)O)NC(=O)c2cccs2)cc1 (centres unmarked),-2.74

# Source: paper PMC4336329 (PLoS ONE, 2015)
